“And” between values parts separate entries of the source, which are not always exact repeats. Identical values can stand only once. Hit rate of the full screen: of about 150,000 compounds, about 6,500 (4.3%) were called active. This list was built around the results that the source calls inconclusive (neither active nor inactive); the mix of calls is not that of the screen. Calls come from the whole dose curve; as a rule, active = well fitted inhibition curve with a large enough effect (not every such curve was filed as active); inconclusive = small, poorly fitted or top-dose-only effect, or another doubt; inactive = no such curve, though single readings can be large or run the other way. Where the call is inconclusive, the potency comes from a doubtful curve fit.
Each compound was assayed against 15-hydroxyprostaglandin dehydrogenase [NAD(+)] (Homo sapiens) (UniProt P15428) (assay: qHTS Assay for Inhibitors of HPGD (15-Hydroxyprostaglandin Dehydrogenase)). Conditions: purified HPGD, NADH fluorescence kinetic, PGE2 substrate; activity change, negative = inhibition: active compounds read low.
UniProt P15428, sequence (P15428 whole entry, looked up): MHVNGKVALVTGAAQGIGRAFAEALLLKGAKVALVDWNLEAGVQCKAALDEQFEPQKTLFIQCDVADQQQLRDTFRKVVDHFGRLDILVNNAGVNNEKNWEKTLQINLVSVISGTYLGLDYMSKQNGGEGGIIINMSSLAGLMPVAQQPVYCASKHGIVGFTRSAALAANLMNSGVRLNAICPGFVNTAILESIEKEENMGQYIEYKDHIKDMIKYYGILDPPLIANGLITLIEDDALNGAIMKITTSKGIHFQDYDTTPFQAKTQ
In short: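 NADH formation kinetics: reaction with 30 uM PGE2 and 1 mM NAD+ (final), 20 nM enzyme, Tris-HCl pH 8 with Tween 20, after 15 min compound preincubation at room temperature. Fluorescence change, last versus first of five reads.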
% is set by controls: 0 for no effect and ±100 for the full control effect; potency is the fitted concentration of half-maximal effect; tags give direction and shape of the fitted curve.

SMILES | Potency | activity change, negative = inhibition
O=C(COC(=O)c1cccs1)c1ccc2ccccc2c1 | inconclusive: 10 µM [inhibitor, partial curve] | –
CN(C)c1ccc(-c2cncnc2NCc2ccccc2)cc1 | inconclusive: 15.8 µM [inhibitor, partial curve] | –
COc1ccc(C(=O)Nc2ccc(Oc3nc(C)nc4sc(-c5ccccc5)cc34)cc2)cc1OC | inconclusive: 31.6 µM [inhibitor, partial curve] | –
C[n+]1ccc(/C=C/c2ccc(Br)cc2)cc1 | inconclusive: 28.2 µM [inhibitor, single point] | –
CCc1c(C)sc(NC(=O)c2cc(-c3cc(OC)ccc3OC)on2)c1C#N | inconclusive: 22.4 µM [inhibitor, partial curve] | –
CN(Cc1ccccc1)c1ccc2nnc(-c3ccccc3)n2n1 | – | inactive: -24.3%
CC(/C=C1\SC(=O)N(CCCC(=O)O)C1=O)=C\c1ccccc1 | inconclusive: 11.2 µM [inhibitor, partial curve, poor fit] | –
Cc1cc2c(cc1Cl)C(c1ccccc1C)CC(=O)O2 (centres undefined) | – | inactive: -19.4%
C#CC(=O)N(c1cc(OC)ccc1OC)C(C(=O)NC1CCCC1)c1cccs1 (centres undefined) | – | inactive: -12%
COc1ccc(-n2cccc2/C=C/[N+](=O)[O-])cc1 | active: 35.5 µM | –
CCOC(=O)c1ccc(NC2=CC(=O)C(=O)c3ccccc32)cc1 | active: 4.47 µM | –
Cc1oc(-c2ccc3c(c2)OCCO3)cc1C(=O)NC(CCC(=O)O)C(=O)O (centres undefined) | active: 14.1 µM | –
NNC(=O)CSc1cccc2cccnc12 | inconclusive: 31.6 µM [inhibitor, partial curve] | –
N#Cc1sc2nc(N3CCCCC3)c3c(c2c1N)CCCC3 | inconclusive: 35.5 µM [inhibitor, single point] | –
CCOC(=O)c1ccc2c(c1)nc(SCC(=O)N1CCCCC1)n2CC | active: 5.01 µM | –
Cc1sc2nc(COC(=O)c3ccc(N4CCCC(C)C4)c([N+](=O)[O-])c3)[nH]c(=O)c2c1C (centres undefined) | inconclusive: 12.6 µM [inhibitor, partial curve] | –
CCOc1cc(C2Nc3ccccc3C(=O)N2c2ccccc2)ccc1O (centres undefined) | inconclusive: 28.2 µM [inhibitor, single point] | –
C=CCn1c(SCC(=O)NC2CCCCC2)nnc1-c1ccc(OC)cc1 | inconclusive: 39.8 µM [inhibitor, single point] | –
COc1ccc(C(=O)OC(C)C(=O)Nc2cc(C(F)(F)F)ccc2Cl)c(OC)c1OC (centres undefined) | active: 25.1 µM | –
COc1ccc(C(=O)Nc2ccc3c(c2)Cc2ccccc2-3)cc1 | inconclusive: 28.2 µM [inhibitor, partial curve] | –
CCOC(=O)Cn1c(=N)n(Cc2ccccc2)c2ccccc21 | – | inactive: -6.75%
CCOC(=O)c1ccc(N2CC(O)=C(c3nc4ccccc4c(=O)[nH]3)C2=N)cc1 | inconclusive: 31.6 µM [inhibitor, partial curve] | –

SMILES | Potency | activity change, negative = inhibition
Cc1ccc(C(=O)NCCSCc2ccc(Cl)cc2Cl)cc1[N+](=O)[O-] | inconclusive: 15.8 µM [inhibitor, partial curve] | –
CCc1cc(-c2[nH]ncc2-c2ccc3c(c2)OCO3)c(O)cc1O | inconclusive: 28.2 µM [inhibitor, partial curve] | –
COc1ccc(C2Nc3ccccc3C(=O)N2c2ccc(F)cc2)cc1Cn1nnc2ccccc21 (centres undefined) | inconclusive: 31.6 µM [inhibitor, partial curve] | –
O=C(O)Cc1ccc2c(c1)N(S(=O)(=O)c1cccc(C(F)(F)F)c1)CC(C(=O)O)O2 (centres undefined) | inconclusive: 35.5 µM [inhibitor, single point] | –
CCOC(=O)c1c(-c2ccncc2)csc1N | inconclusive: 25.1 µM [inhibitor, single point] | –
Cc1oc(-c2ccccc2)cc1C(=O)Nc1cccc2ccccc12 | inconclusive: 12.6 µM [inhibitor, partial curve] | –
CC1CCN(S(=O)(=O)c2ccc(C(=O)Nc3ccccc3-c3nc4ccccc4[nH]3)cc2)CC1 | inconclusive: 28.2 µM [inhibitor, single point] | –
OC(c1ccccc1)C1CN(Cc2ccccc2)CCC1(O)c1ccccc1 (centres undefined) | – | inactive: -13.9%
Cc1cccc(NC(=S)NC2CCCC2)c1 | inconclusive: 39.8 µM [inhibitor, single point] | –
O=C(O)c1c2ccccc2cc2ccccc12 | inconclusive: 39.8 µM [inhibitor, partial curve] and inconclusive: 28.2 µM [inhibitor, partial curve] | –
CC(=O)c1sc(Nc2nc(C)cc(C)n2)nc1C | active: 14.1 µM | –
Cc1cccc(CNc2ccnc(-c3cccc(NS(C)(=O)=O)c3)n2)c1 | inconclusive: 39.8 µM [inhibitor, single point] | –
CCOCCCn1c(=NC(=O)c2cccnc2)c(C(=O)OCC)cc2c(=O)n3ccccc3nc21 | inconclusive: 25.1 µM [inhibitor, partial curve] | –
O=C(Nc1ccc(Oc2cccnc2)cc1)c1ccccc1F | inconclusive: 35.5 µM [inhibitor, partial curve] | –
CCOCCOC(=O)c1cccc(NC(=O)OCC)c1 | – | inactive: -23.9%
CC(NC(=O)c1cc(-c2ccc3c(c2)OCO3)nc2ccccc12)C(C)(C)C (centres undefined) | inconclusive: 35.5 µM [inhibitor, single point] | –
CCOC(=O)c1sc(NC(=O)CSc2nncs2)c(C(=O)OCC)c1C | active: 28.2 µM | –
CCOC(=O)c1nc2cc3n(c(C)c-2c1C)C(C)C(C)=C3C (centres undefined) | inconclusive: 28.2 µM [inhibitor, partial curve] | –
O=C1C(c2ccccc2)SC(=Nc2ccccc2)N1S(=O)(=O)c1ccccc1 (centres undefined) | active: 14.1 µM | –
O=C(O)CCC(=O)N1CCN(c2cccc(Cl)c2)CC1 | – | inactive: -6.47%
Cc1cc(=O)oc2ccc(OCC(=O)O)cc12 | inconclusive: 25.1 µM [inhibitor, single point] | –
Cc1ccc(NC(=S)Nc2ccc3nc(-c4ccccn4)c(-c4ccccn4)nc3c2)cc1C | – | inactive: -25.8%

Reference: PubChem BioAssay AID894 (National Center for Advancing Translational Sciences (NCATS), 2007)
